The values below come from the supplement of paper PMC4604168 (melanoma cell lines).

SMILES strings stand for the structures. The list shows a part of the results. Repeats are few or missing, and single values can be far off.
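Further: cell number obtained by counting DAPI-stained nuclei in high-throughput microscope images with image analysis software, screen run in 1,536-well plates.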

The first test concerns UACC257. Description: cell count relative to DMSO control; melanoma cells; higher = more viable cells. The settings on record: library dose: low library concentration; 72 h.
`Cc1ccc(NC(=O)c2cccc(N(C)C)c2)cc1NC(=O)c1ccc(O)cc1` + COc1ccc(-c2ccc3c(N4CCOCC4)nc(N4C[C@@H](C)O[C@@H](C)C4)nc3n2)cc1CO [KU0063794] (first compound 2 µM, partner dose 0.02 µM) showed a cell count of 71.5%.
Still for that read-out and setting: then `Cc1ccc(NC(=O)c2cccc(N(C)C)c2)cc1NC(=O)c1ccc(O)cc1` + O=C(Nc1ccccc1)c1cc([N+](=O)[O-])ccc1Cl [GW9662] (first compound 2 µM, partner dose 2 µM), with 78.5%.
Consider `CCc1ccc(CCOc2ccc(CC3SC(=O)NC3=O)cc2)nc1` (stereo not given) [pioglitazone] + COc1ccc(-c2ccc3c(N4CCOCC4)nc(N4C[C@@H](C)O[C@@H](C)C4)nc3n2)cc1CO [KU0063794] (first compound 2 µM, partner dose 0.02 µM), for which the cell count amounted to 88.2%.
As for `COc1cc2c(Oc3ccc4[nH]c(C)cc4c3F)ncnc2cc1OCCCN1CCCC1` [cediranib] + COC(=O)c1sccc1S(=O)(=O)Nc1ccc(Nc2ccccc2)cc1OC [GSK0660] (first compound 0.4 µM, partner dose 1 µM), the cell count turned out to be 85.7%.
Same read-out and setting: to `CN(NC(=O)CC(=O)NN(C)C(=S)c1ccccc1)C(=S)c1ccccc1` + COc1ccc(-c2ccc3c(N4CCOCC4)nc(N4C[C@@H](C)O[C@@H](C)C4)nc3n2)cc1CO [KU0063794] (first compound 0.006 µM, partner dose 0.02 µM) belongs 85.1%; to `CCc1ccc(CCOc2ccc(CC3SC(=O)NC3=O)cc2)nc1` (stereo not given) [pioglitazone] + COc1ccc(COc2ccc(Cc3cnc(N)nc3N)cc2OC)cc1 [GW2580] (first compound 2 µM, partner dose 1 µM), 82.7%.
In the case of `Cc1ccc(NC(=O)c2cccc(N(C)C)c2)cc1NC(=O)c1ccc(O)cc1` + CCCCCCCCCCCC1=C(O)C(=O)C=C(O)C1=O [Embelin] (first compound 2 µM, partner dose 1.2 µM), the cell count came out at 103%.
Same read-out and setting: to `Cc1ccc(NC(=O)c2cccc(N(C)C)c2)cc1NC(=O)c1ccc(O)cc1` + CCN(CC)CCCCNc1ncc2cc(-c3cc(OC)cc(OC)c3)c(NC(=O)NC(C)(C)C)nc2n1 [PD173074] (first compound 2 µM, partner dose 0.1 µM) belongs 84.1%.
Same read-out and setting: to `CCc1ccc(CCOc2ccc(CC3SC(=O)NC3=O)cc2)nc1` (stereo not given) [pioglitazone] + CCCCCCCCCCCC1=C(O)C(=O)C=C(O)C1=O [Embelin] (first compound 2 µM, partner dose 1.2 µM) belongs 118%; to `COc1cc2c(Oc3ccc4[nH]c(C)cc4c3F)ncnc2cc1OCCCN1CCCC1` [cediranib] + CCCCCCCCCCCC1=C(O)C(=O)C=C(O)C1=O [Embelin] (first compound 0.4 µM, partner dose 1.2 µM), 98.8%.
Same read-out and setting: then `CC(C)(C)c1cnc(CSc2cnc(NC(=O)C3CCNCC3)s2)o1` + Cc1cc([N+](=O)[O-])ccc1NS(=O)(=O)c1cc(Cl)ccc1Cl [FH535] (first compound 0.01 µM, partner dose 1 µM), with 89.6%.
With `CC(C)(C)c1cnc(CSc2cnc(NC(=O)C3CCNCC3)s2)o1` + N#Cc1c(O)c2c(-c3ccc(-c4ccccc4O)cc3)csc2[nH]c1=O [A769662] (first compound 0.01 µM, partner dose 2 µM), the cell count came out at 81.5%.

A further test deals with UACC62. The test is described as above. The settings on record: library dose: low library concentration; 72 h.
As to `CC(C)(C)c1cnc(CSc2cnc(NC(=O)C3CCNCC3)s2)o1` + COc1ccc2c(c1)CCC1C2CCC2(C)C(NCCCCCCN3C(=O)C=CC3=O)CCC12 [U73122] (first compound 0.01 µM, partner dose 0.4 µM), the cell count stood at 112%.
On the same count and under the same terms, to `CC(C)(C)c1cnc(CSc2cnc(NC(=O)C3CCNCC3)s2)o1` + Oc1cc(-c2nc(-c3ccccc3)[nH]c2-c2ccncc2)ccc1Cl [L779450] (first compound 0.01 µM, partner dose 0.2 µM) belongs 85.3%; to `CC(C)(C)c1cnc(CSc2cnc(NC(=O)C3CCNCC3)s2)o1` + Cn1cc(/C=C2\C(=O)Nc3cccnc32)c2ccccc21 [GW441756] (first compound 0.01 µM, partner dose 0.4 µM), 94.4%.
The same measure, in the same setting: to `CN(NC(=O)CC(=O)NN(C)C(=S)c1ccccc1)C(=S)c1ccccc1` + COc1cc2ncnc(Nc3ccc(Oc4ccccc4)cc3)c2cc1OC [SrcI1] (first compound 0.006 µM, partner dose 2 µM) belongs 100%; to `CCc1ccc(CCOc2ccc(CC3SC(=O)NC3=O)cc2)nc1` (stereo not given) [pioglitazone] + c1cc(-c2cnn3cc(-c4ccc(OCCN5CCCCC5)cc4)cnc23)ccn1 [Dorsomorphin] (first compound 2 µM, partner dose 0.4 µM), 101%.
The same measure, in the same setting: to `Cc1ccc(NC(=O)c2cccc(N(C)C)c2)cc1NC(=O)c1ccc(O)cc1` + Cn1cc(/C=C2\C(=O)Nc3cccnc32)c2ccccc21 [GW441756] (first compound 2 µM, partner dose 0.4 µM) belongs 104%.
As to `CN(NC(=O)CC(=O)NN(C)C(=S)c1ccccc1)C(=S)c1ccccc1` + O=c1cc(-c2cccc3c2Sc2ccccc2S3)oc(N2CCOCC2)c1 [KU55933] (first compound 0.006 µM, partner dose 1 µM), the cell count worked out at 110%.
On the same count and under the same terms, to `CC(C)(C)c1cnc(CSc2cnc(NC(=O)C3CCNCC3)s2)o1` + O=C1NC(=O)/C(=C/c2ccc(-c3ccc(F)cc3O)o2)S1 [AS252424] (first compound 0.01 µM, partner dose 1 µM) belongs 101%; to `CN(NC(=O)CC(=O)NN(C)C(=S)c1ccccc1)C(=S)c1ccccc1` + O=C(Nc1ccccc1)c1cc([N+](=O)[O-])ccc1Cl [GW9662] (first compound 0.006 µM, partner dose 2 µM), 80.6%.
The same measure, in the same setting: then `COc1cc2c(Oc3ccc4[nH]c(C)cc4c3F)ncnc2cc1OCCCN1CCCC1` [cediranib] + O=C(O)C(=O)Nc1sc2c(c1C(=O)O)CCNC2 [TCS401] (first compound 0.4 µM, partner dose 1.66667 µM), with 91.3%; and `CC(C)(C)c1cnc(CSc2cnc(NC(=O)C3CCNCC3)s2)o1` + O=c1cc(-c2cccc3c2Sc2ccccc2S3)oc(N2CCOCC2)c1 [KU55933] (first compound 0.01 µM, partner dose 1 µM), with 83.3%; and `COc1cc2c(Oc3ccc4[nH]c(C)cc4c3F)ncnc2cc1OCCCN1CCCC1` [cediranib] + CCc1ccc(CCOc2ccc(CC3SC(=O)NC3=O)cc2)nc1 [pioglitazone] (first compound 0.4 µM, partner dose 2 µM), with 93.6%.
On the same count and under the same terms, to `CN(NC(=O)CC(=O)NN(C)C(=S)c1ccccc1)C(=S)c1ccccc1` + O=C(O)C(=O)Nc1sc2c(c1C(=O)O)CCNC2 [TCS401] (first compound 0.006 µM, partner dose 1.66667 µM) belongs 103%; to `CN(NC(=O)CC(=O)NN(C)C(=S)c1ccccc1)C(=S)c1ccccc1` + Cn1cc(/C=C2\C(=O)Nc3cccnc32)c2ccccc21 [GW441756] (first compound 0.006 µM, partner dose 0.4 µM), 75.4%.
`Cc1ccc(NC(=O)c2cccc(N(C)C)c2)cc1NC(=O)c1ccc(O)cc1` + CCc1ccc(CCOc2ccc(CC3SC(=O)NC3=O)cc2)nc1 [pioglitazone] (first compound 2 µM, partner dose 2 µM) gave a cell count of 90.1%.
Still for that read-out and setting: then `COc1cc2c(Oc3ccc4[nH]c(C)cc4c3F)ncnc2cc1OCCCN1CCCC1` [cediranib] + N#Cc1c(O)c2c(-c3ccc(-c4ccccc4O)cc3)csc2[nH]c1=O [A769662] (first compound 0.4 µM, partner dose 2 µM), with 95%; and `CCc1ccc(CCOc2ccc(CC3SC(=O)NC3=O)cc2)nc1` (stereo not given) [pioglitazone] + Cc1cc([N+](=O)[O-])ccc1NS(=O)(=O)c1cc(Cl)ccc1Cl [FH535] (first compound 2 µM, partner dose 1 µM), with 97%.
Still for that read-out and setting: to `CCc1ccc(CCOc2ccc(CC3SC(=O)NC3=O)cc2)nc1` (stereo not given) [pioglitazone] + COC(=O)c1sccc1S(=O)(=O)Nc1ccc(Nc2ccccc2)cc1OC [GSK0660] (first compound 2 µM, partner dose 1 µM) belongs 98.8%.
Same read-out and setting: to `COc1cc2c(Oc3ccc4[nH]c(C)cc4c3F)ncnc2cc1OCCCN1CCCC1` [cediranib] + COc1ccc(COc2ccc(Cc3cnc(N)nc3N)cc2OC)cc1 [GW2580] (first compound 0.4 µM, partner dose 1 µM) belongs 82.4%.
With `Cc1ccc(NC(=O)c2cccc(N(C)C)c2)cc1NC(=O)c1ccc(O)cc1` + COc1ccc2c(c1)CCC1C2CCC2(C)C(NCCCCCCN3C(=O)C=CC3=O)CCC12 [U73122] (first compound 2 µM, partner dose 0.4 µM), the cell count stood at 101%.
The same measure, in the same setting: to `CN(NC(=O)CC(=O)NN(C)C(=S)c1ccccc1)C(=S)c1ccccc1` + CCc1ccc(CCOc2ccc(CC3SC(=O)NC3=O)cc2)nc1 [pioglitazone] (first compound 0.006 µM, partner dose 2 µM) belongs 78.2%; to `CN(NC(=O)CC(=O)NN(C)C(=S)c1ccccc1)C(=S)c1ccccc1` + Oc1nc(-c2ccc(C(F)(F)F)cc2)nc2c1CSCC2 [XAV939] (first compound 0.006 µM, partner dose 2 µM), 107%.
`CCc1ccc(CCOc2ccc(CC3SC(=O)NC3=O)cc2)nc1` (stereo not given) [pioglitazone] + CCN(CC)CCCCNc1ncc2cc(-c3cc(OC)cc(OC)c3)c(NC(=O)NC(C)(C)C)nc2n1 [PD173074] (first compound 2 µM, partner dose 0.1 µM) gave a cell count of 98.6%.
